Source: the supplement of paper PMC3334620
In all, about 33,000 sequences were measured (“E-score (-0.5 to 0.5)”: median about -0.035, highest 2% from about 0.34 on). The list shows a part of the results.

Target: T1, Mot3 (UniProt P54785)
T1 sequence: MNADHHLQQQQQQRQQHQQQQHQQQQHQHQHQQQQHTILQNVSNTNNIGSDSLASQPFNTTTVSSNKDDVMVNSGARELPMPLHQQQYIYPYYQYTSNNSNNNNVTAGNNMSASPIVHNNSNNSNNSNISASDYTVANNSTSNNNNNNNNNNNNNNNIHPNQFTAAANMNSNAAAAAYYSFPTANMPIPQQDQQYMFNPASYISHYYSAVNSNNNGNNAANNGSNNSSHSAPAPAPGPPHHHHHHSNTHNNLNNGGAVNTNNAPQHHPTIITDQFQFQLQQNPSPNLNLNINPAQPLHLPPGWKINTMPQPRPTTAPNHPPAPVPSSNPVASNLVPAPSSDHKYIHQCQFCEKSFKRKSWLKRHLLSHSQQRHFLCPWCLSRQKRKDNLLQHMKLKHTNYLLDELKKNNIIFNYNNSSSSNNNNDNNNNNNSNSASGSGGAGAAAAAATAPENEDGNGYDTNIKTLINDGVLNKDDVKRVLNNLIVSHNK
Assay: PBM E-score (8-mer binding enrichment) (E-score (-0.5 to 0.5)); higher = stronger / more preferred TF binding; most listed sequences are background and not binding sites
Conditions: protein concentration: 200 nM; construct: GST-full length
How it was run: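 For each ungapped eight-base word taken together with its reverse complement, the Universal PBM Analysis Suite assigned an E-score. Binding data came from GST-tagged yeast transcription factors, applied at about 100-200 nM, on universal all-10-mer Agilent arrays made double-stranded by primer extension. Fluorescent anti-GST marked bound protein, and scans were normalised with masliner.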

Row | Sequence | PBM E-score
1 | ACTCCTTC | -0.0369
2 | GATAAACC | -0.0874
3 | GGGGTTGA | -0.192
4 | CTAGAGAC | -0.235
5 | GACCTCTC | -0.234
6 | CTCGGAAG | -0.171
7 | AACTACCG | -0.0555
8 | AAAGGGTG | 0.0112
9 | CCTACCGA | -0.04
10 | ACGGATTG | -0.19
11 | GATGCTGC | -0.131
12 | ACATGTGC | 0.314
13 | CGGGTCGA | -0.253
14 | CGTTGGCA | 0.00506
15 | AACATCGT | 0.077
16 | CCCCATGC | -0.0474
17 | AAGAACGT | 0.165
18 | TTCGTCAA | 0.048
19 | CAATTCAG | -0.0267
20 | GTCTAAAC | 0.058
21 | CTACTATC | 0.0896
22 | ATCAGTAC | -0.0527
23 | CAGACCCG | -0.0882
24 | ACGGGCAA | 0.0915
25 | AACCAATG | 0.0897

Row | Sequence | PBM E-score
26 | GCGTATGA | -0.0512
27 | AATTATAG | -0.0152
28 | AAGCCAAC | -0.0405
29 | CAGCGTGC | 0.00716
30 | TGCCTCCA | 0.404
31 | ATTTTCAC | 0.0895
32 | CCAGTCCC | -0.325
33 | ATCAACAT | 0.339
34 | AGGTAAGA | 0.144
35 | CTAGCGAG | -0.233
36 | AGGATAAG | -0.191
37 | CGAATATC | -0.0868
38 | CACCTGAG | 0.0319
39 | GCGGCTAA | -0.14
40 | TGGGTGAA | 0.114
41 | GACCAGGA | -0.0221
42 | ACAGGAAT | 0.107
43 | ATTCAATA | 0.0942
44 | CGATCGAC | -0.00926
45 | TAGCATGA | 0.13
46 | TTCATCAA | 0.102
47 | TATTCTAA | 0.0881
48 | GAACACCA | -0.0537
49 | ATTAACAA | 0.328
50 | AGAGCCCG | -0.342

Row | Sequence | PBM E-score
51 | ACTCATCA | -0.0406
52 | ACCGTTAT | -0.0919
53 | AGGCACCA | 0.492
54 | AATCGATA | 0.0988
55 | CCTCCAAG | 0.0657
56 | CCTTCCGC | -0.133
57 | ACGCCTAC | 0.0133
58 | AATAGTTA | 0.0491
59 | GAATGACC | -0.244
60 | AGCACTTC | -0.0493
61 | GAGCAATA | -0.0444
62 | AAGTGGGG | -0.154
63 | CATTAGTA | 0.102
64 | ACCCATCC | -0.237
65 | TCATCAAA | -0.00291
66 | CACATCTC | 0.0801
67 | TCGTTAAA | 0.104
68 | TCGATAGA | -0.0212
69 | AAGTGGAG | 0.128
70 | ATGAGATC | -0.0244
71 | CAAATTAA | 0.106
72 | CAAAACGA | 0.162
73 | ATCCGTTC | -0.0618
74 | AATACAAT | 0.148
75 | AACGGTGA | -0.107

Row | Sequence | PBM E-score
76 | CACGACGA | 0.0462
77 | ACACATGC | 0.207
78 | GTCTCGTA | -0.0598
79 | GAGGATCC | -0.146
80 | CATTCTGC | -0.0816
81 | CTCAAGCA | -0.101
82 | AATCATGC | 0.0214
83 | ATCACCTA | -0.116
84 | TAAACAGA | 0.177
85 | CTCCCGAA | -0.263
86 | ATCCACTA | -0.0198
87 | CACAGTGC | 0.0432
88 | CTTCACGC | 0.151
89 | CCTTTCCG | 0.00318
90 | AACTCAGA | 0.143
91 | AAAATGCA | -0.0614
92 | GGAAACCC | 0.0425
93 | GCGTTAAA | 0.239
94 | AAACCAAT | -0.0172
95 | GCATATCA | -0.0598
96 | GCCTTTCC | 0.192
97 | CAGCTAAA | 0.105
98 | CAACATGA | 0.352
99 | AGCAGTAT | -0.254
100 | AACGTATT | 0.223

Row | Sequence | PBM E-score
101 | GGGGAGAC | -0.257
102 | AATTACAG | 0.27
103 | CCTATCCC | -0.129
104 | ATGTGCCA | 0.0201
105 | ATCCTGAG | -0.153
106 | CCACTGGA | -0.232
107 | CTTAAAGC | 0.00562
108 | CCATGGCG | -0.134
109 | CCGATTGA | -0.011
110 | AACGTGAT | 0.0924
111 | CCAAAATC | -0.0299
112 | AAATTTTA | 0.195
113 | GCGCCACA | -0.0964
114 | AGACGCCC | -0.331
115 | CCCGCGAG | -0.205
116 | AAAATCAC | 0.145
117 | CGAACCAA | -0.121
118 | AAAGTTCG | 0.111
119 | GGACTTAA | -0.0725
120 | GTAGAAAC | 0.218
121 | ATTTGCTA | -0.0903
122 | AAAATTTT | 0.0875
123 | AACCGTAG | -0.229
124 | AAGGTGAA | -0.0354
125 | AGTCAAGA | -0.176

Row | Sequence | PBM E-score
126 | ACCCAGTC | -0.272
127 | CGAAGCAA | 0.0941
128 | CGCTCAAG | -0.0197
129 | TCCCAACA | -0.0506
130 | CCTCAACA | 0.275
131 | AGTCCTAT | -0.0536
132 | CAGTTCCA | -0.00514
133 | CACACTGC | -0.218
134 | AAGTGGCT | -0.213
135 | CGTCCCTC | -0.103
136 | CCGTTTCC | 0.041
137 | GGGATGGA | -0.118
138 | TAACGTGA | 0.141
139 | CCGAAAGC | -0.0343
140 | CATGTTCG | 0.158
141 | GCAGACTA | -0.142
142 | CTTACCTC | -0.0814
143 | ACGCTGCG | -0.0155
144 | ATCCCAGC | -0.159
145 | CGAAAAAA | 0.187
146 | GATGTTAC | 0.276
147 | AGCCACTC | -0.171
148 | GGCATAGA | -0.14
149 | CGCTGCAG | -0.0424
150 | TCAGAGGA | -0.251

Row | Sequence | PBM E-score
151 | AAGTAGTC | 0.118
152 | CAAGGCCG | -0.0783
153 | CAAAGGAG | -0.0795
154 | CATGACGA | -0.0662
155 | TCATGAGA | 0.0252
156 | GCGCCGTA | -0.0443
157 | CACTGATG | -0.0925
158 | ATAAAGAG | 0.0636
159 | AAACGTGT | 0.344
160 | GACGGCCA | -0.165
161 | ACTTTGAG | 0.0207
162 | AGTAAATG | 0.207
163 | AACGATCC | -0.212
164 | CAAGCCGC | -0.00773
165 | ATTGCATG | -0.0116
166 | GCTTTGTA | 0.216
167 | CCCTGCCC | -0.284
168 | CAGTCCTC | -0.298
169 | ATCCCGTC | 0.011
170 | AATGGTCG | -0.0766
171 | AAGGGGGT | -0.18
172 | ACGGTACA | -0.0548
173 | GGGAGCAC | -0.45
174 | TACCAGCA | -0.158
175 | ATCATTCG | -0.175

Row | Sequence | PBM E-score
176 | CACCATAA | -0.0272
177 | AGATGGCG | -0.0823
178 | GTATTTTA | 0.23
179 | AGGTGTGG | -0.301
180 | ACCTGTGA | 0.23
181 | GTCTAGGA | -0.024
182 | CAAGCCCG | -0.178
183 | ATAAGTCA | 0.0444
184 | ACTTATAA | 0.136
185 | TCTGAGAA | -0.0446
186 | GAAGTTAC | 0.0404
187 | CCAATACA | 0.163
188 | GATTGTAC | -0.0144
189 | ATCGCGAG | 0.0717
190 | AGTAGCAG | -0.0786
191 | CAAGCCCA | -0.121
192 | CAATCGAA | -0.072
193 | AACTGGTG | -0.193
194 | CACCATCA | -0.00358
195 | AAGCTGGA | -0.172
196 | TAGAGGCA | 0.389
197 | GTTTCTCA | -0.169
198 | AAGTCCGA | -0.102
199 | TAAAGGGA | 0.016
200 | AGATACGG | -0.243

Row | Sequence | PBM E-score
201 | GATATAGC | -0.192
202 | GACACATC | -0.0862
203 | AAGAGCCA | -0.02
204 | CTGCGATA | -0.111
205 | CCTTTTAA | 0.316
206 | GGGGAAAC | -0.107
207 | GTATTGAC | 0.0413
208 | ACGACCGA | -0.0732
209 | CTCATGGA | 0.261
210 | ATCCAATG | -0.169
211 | AAGAGACC | 0.015
212 | GGGATGTA | 0.188
213 | CCAGGAGC | -0.247
214 | GACACTCC | -0.00198
215 | TTCTGAAA | 0.0514
216 | ATACTGTA | 0.103
217 | CATTTGCC | 0.127
218 | GACGTCTA | -0.114
219 | ACAACCGG | 0.0109
